# Screen size: about 150,000 compounds; about 540 (0.36%) showed an effect of 50% or more. The list shows a part of the results.
# System: Plasmodium falciparum
# Assay: Primary screen in NF54 nanoGlo assay, in single point, at 2uM, 72h; a lower Z score goes with more inhibition
# Assay type: functional, Erythrocyte
# Conditions: timepoint 72 hour
SMILES,% Inhibition,Z score
CCN1CC[C@H](N(C)C(=O)Nc2ccc(N3CCOCC3)nc2)C1,-12%,1.51
Cc1nc(C#N)c(NCCc2ccccc2)o1,0%,-0.02
CCCc1nnc(N2CCc3[nH]c4ccccc4c3C2)s1,-1%,0.21
CN(CCCn1cccn1)C(=O)[C@H]1CC(=O)N(C2CCCC2)C1,-14%,1.84
Brc1cccc2c(N3CC(n4cccn4)C3)ncnc12,0%,-0.05
OCCN(CCO)Cc1ccc(F)cc1F,-3%,0.52
CCOC(=O)N1CCN(Cc2ccc(-c3ccccc3C#N)o2)CC1,-12%,2.2
CC(C)n1cnnc1[C@H](C)Nc1ncc(C#N)c(N)n1,4%,-0.73
Cc1nc2n(c1CCNC1=NS(=O)(=O)c3ccccc31)CCCC2,-7%,1.08
Cc1nn(-c2ccccc2)c(C)c1Cc1nc(C(C)C)no1,0%,0.07
Cc1cc(N2C(=O)C(C)CS2(=O)=O)ccc1S(=O)(=O)NCC(c1ccco1)N(C)C (centres undefined),3%,-0.55
Clc1ccc2nc(NCc3noc(C4CC4)n3)sc2c1,-11%,1.32
Cc1ncc(CN2CC[C@](C(=O)O)(c3ccccc3)C2)s1,-10%,1.74
Cn1c(CN2CCCCCC2)nnc1C1CCN(C(=O)Cn2ccnn2)CC1,-17%,2.35
CCc1nc(N)sc1C(=O)NC[C@H]1CCN(CC(C)C)C1,-6%,1.1
O=C(c1cccc2c1CCCC2)N1CC2(CC2)C1,4%,-0.59

SMILES,% Inhibition,Z score
COCCN(CC1CCN(C)CC1)C(=O)c1nnc(C(C)(C)C)s1,-5%,0.98
Cc1ncc(CN2CCC[C@H](c3ccnn3C)C2)n1C,0%,-0.08
Cc1ccc(CCC(=O)N[C@H]2CC(=O)N(C(C)C)C2)s1,-2%,0.22
COC(=O)[C@H]1CC[C@H](C(=O)N(Cc2ccccn2)C(C)(C)C)CC1,1%,-0.15
CC(C)Cn1cc(NC(=O)[C@H]2CC(=O)N(C(C)C)C2)c(C(F)F)n1,-9%,0.78
CO[C@@H](CS(=O)(=O)Nc1ncc2[nH]ccc2c1Br)C(C)C,1%,-0.11
CC1CN(CCC2CCOCC2)CC[S+]([O-])C1 (centres undefined),19%,-2.36
CCOc1ncccc1-c1nc(CC)n(C)n1,6%,-0.97
Cc1ncc(CN(Cc2cnn(C)c2)C2CC2)n1C,-13%,2.3
CCOC1(c2nc(C3CC4CCC3N(C(=O)OC)C4)no2)CCCC1 (centres undefined),0%,-0.04
COc1ccc(CNC(=O)N2CCC3(CC2)C[C@@H]3c2noc(C)n2)cc1,-6%,0.83
O[C@H]1CCN(Cc2cc(-n3ccnc3)cs2)C12CCCC2,2%,-0.26
Cc1cc(NS(=O)(=O)c2cccs2)n(-c2cc(C)c3cccc(C)c3n2)n1,2%,-0.21
O=C(CCCc1nccs1)Nc1ccc2[nH]ncc2c1,2%,-0.3
COCCn1c(-c2ccnn2C)nnc1N1CCC=C(C)C1,-2%,0.27
O=C(c1cc[nH]n1)N1CCC2(CC1)C[C@@H](Cc1cccc(F)c1)CCO2,-20%,2.53

# — ChEMBL document CHEMBL4888484, “Replenishing the malaria drug discovery pipeline: Screening and hit evaluation of the MMV Hit Generation Library 1 (HGL1) against asexual blood stage Plasmodium falciparum ,using a nano luciferase reporter read-out” (2022)
